This list was built around the results that the source calls inconclusive (neither active nor inactive); the mix of calls is not that of the screen. For some assays here: A potency beside an inconclusive call is a rough fit, not a confirmed value. Active and inactive are the calls of the source. Unless noted, calls follow the shape of the dose curve; as a rule, active = well fitted curve in either direction with a large enough effect (not every such curve was filed as active); inconclusive = small, poorly fitted or top-dose-only effect, or another doubt; inactive = flat fitted curve, though single readings scatter.
Experiments:
[1] = AP1 Signaling Pathway (AID 357); conditions: ME-180 AP-1-bla reporter, EGF-induced, beta-lactamase ratio, 5 h; at 17.2 µM (top of the series) unless noted;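 also: ME-180 reporter cells stimulated with EGF at its EC50 level; top concentration of the series differs between compounds; % is scaled to controls: 0 for no effect and ±100 for the full control effect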
Outline: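 AP-1-bla ME-180 cells, Opti-MEM + 0.5% dialyzed FBS, plated overnight 37 °C. Cpd titration + EC50 EGF, 5 h 37 °C. CCF4 2.5 h RT; ex 405, em 460/530 ratio → %activity, AC50.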

[2] = qHTS Assay for Identification of Small Molecule Agonists for Hypoxia Response Element Signaling Pathway (AID 914; active = well fitted activation curve with a large enough effect in the signal ratio, with a control signal flat, not every such curve was filed as active; inconclusive = small, poorly fitted or top-dose-only effect, or effect the other way, or a change in a side signal; the % refers to the signal ratio; also: potency is read from the fitted curve at half-maximal effect; as to activation: top concentration of the series differs between compounds; % of control where 0% means no effect); conditions: ME-180 HRE-bla reporter, beta-lactamase ratio, CoCl2, 17 h; activation: hits give high values
Outline: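 Read-out: CCF4 FRET ratio of 460nm to 530nm emission (excitation 405nm) after 2.5 hours at room temperature, taken from HRE-bla ME-180 cells that had been exposed to compound and EC50 CoCl2 for 17 hours.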

[3] = target: Cytochrome P450 1A2 (Homo sapiens) (UniProt P05177); experiment: p450-cyp1a2 (AID 410; calls by dose curve; also: potency is read from the fitted curve at half-maximal effect)
Outline: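 O-Demethylation of luciferin 6' methyl ether by human CYP1A2 is monitored as luciferase luminescence. Substrate sits at Km (100uM); enzyme is 20nM. Values are scaled to 57 uM furafylline as maximal inhibition.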

[4] = NFAT Signaling Pathway (AID 444); conditions: Jurkat NFAT-bla M1, carbachol, beta-lactamase ratio, 5 h; at 17.2 µM (top of the series) unless noted;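 also: carbachol stimulus at about its EC50 of 1 µM final; % is scaled to controls: 0 for no effect and ±100 for the full control effect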
Outline: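 Jurkat cells with NFAT-driven β-lactamase reporter and co-expressed M1 receptor, stimulated with carbachol (final 1 uM, ~EC50), compound titration, 5 h at 37 °C. CCF4 loaded 1 h at RT; 460/530 nm ratio gave %activity and AC50.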

[5] = target: Mitogen-activated protein kinase 10 (Mus musculus) (UniProt Q61831); experiment: JNK3 AlphaScreen Assay (AID 530); conditions: JNK3 lysate, c-Jun phosphorylation; activity change, negative = inhibition: at 57.1 µM (top of the series);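 also: kinase came from lysate of stimulated human HepG2 cells; signal reports phosphorylation of biotinylated GST-cJun 1-79 at Ser73 with 10 µM ATP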; also: potency is read from the fitted curve at half-maximal effect; as to activity change, negative = inhibition: % is scaled to controls: 0 for no effect and ±100 for the full control effect
Outline: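 Activity was read by AlphaScreen after JNK3-containing HepG2 lysate (cytokine pre-activated) phosphorylated biotinylated GST-cJun with 10 uM ATP at room temperature. Phospho-Ser73 cJun antibody with Protein-A acceptor beads provided detection.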

[6] = target: Cytochrome P450 2C9 (Homo sapiens) (UniProt P11712); experiment: qHTS Assay for Inhibitors and Substrates of Cytochrome P450 2C9 (AID 883; active = well fitted curve in the direction sought with a large enough effect; inconclusive = small, poorly fitted or top-dose-only effect, or another doubt; inactive = no such curve, though single readings can be large; an effect the other way counts as inactive or inconclusive; also: potency is read from the fitted curve at half-maximal effect; nearly all actives have a fitted effect of over 60% in size); conditions: recombinant CYP2C9, luciferin-H luminescence, 60 min; activity change, negative = inhibition: at 57.1 µM (top of the series)
Outline: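 Signal: luciferase luminescence reporting luciferin produced by CYP2C9. Conditions: 10nM enzyme, Luciferin-H 100uM at KM, 25mM KPO4, 37C, 60 min NADPH-driven reaction. Reference: 57uM sulphaphenazole as 100% inhibition.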

[7] = Stat Signaling Pathway (AID 446); conditions: ME-180 (cervical carcinoma) SIE beta-lactamase reporter, IL-6 stimulated, 5 h; at 7.69 µM (top of the series) unless noted;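 also: ME-180 cervical cancer cells given 40 pM IL-6 alongside compound; SIE-controlled beta-lactamase reporter measured as 460/530 nm FRET emission ratio; top concentration of the series differs between compounds; % is scaled to controls: 0 for no effect and ±100 for the full control effect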
Outline: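 Overnight-plated ME-180 cells bearing a STAT Inducible Element beta-lactamase reporter; 5 h co-exposure to compound and 40 pM IL-6; values normalized to 300 pM IL-6 and 125 nM JAK inhibitor controls.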

[8] = target: Cytochrome P450 2D6 (Homo sapiens) (UniProt P10635); experiment: qHTS Assay for Inhibitors and Substrates of Cytochrome P450 2D6 (AID 891; active = well fitted curve in the direction sought with a large enough effect; inconclusive = small, poorly fitted or top-dose-only effect, or another doubt; inactive = no such curve, though single readings can be large; an effect the other way counts as inactive or inconclusive;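 also: luciferin methyl ether substrate demethylated by CYP2D6 with NADPH regeneration; potency is read from the fitted curve at half-maximal effect; nearly all actives have a fitted effect of over 60% in size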); conditions: recombinant CYP2D6, luciferin-ME EGE luminescence; activity change, negative = inhibition: at 57.1 µM (top of the series)
Outline: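 Luminescent read-out of luciferin formed by 5 nM human CYP2D6 demethylating 30 uM Luciferin-ME EGE (Km level) over 60 min at room temperature after NADPH regeneration addition. Data normalized to full inhibition by 1.43 uM quinidine.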

[9] = target: 3',5'-cyclic-AMP phosphodiesterase 4B (Homo sapiens) (UniProt Q07343); experiment: qHTS Assay for Inhibitors of PDE-IV (AID 607; active = well fitted activation curve with a large enough effect in the main read-out, with a control signal flat, not every such curve was filed as active; inconclusive = small, poorly fitted or top-dose-only effect, or effect the other way, or a change in a side signal; also: potency is read from the fitted curve at half-maximal effect); conditions: HEK293 ACTOne CNG channel cells, membrane potential fluorescence; activation (PDE inhibition): at 22.9 µM (top of the series)
Outline: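 Live HEK293 cells with a modified cyclic nucleotide-gated (CNG) channel report intracellular cAMP via membrane-potential dye fluorescence (ex 535/em 590 nm). Endogenous PDE-IV was targeted. Compounds were tested at up to 22.9 uM final; RO 20-1724 100 uM served as control.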

[10] = target: Ubiquitin carboxyl-terminal hydrolase 1 (Homo sapiens) (UniProt O94782); experiment: Inhibitors of USP1/UAF1: Pilot qHTS (AID 504865; active = well fitted curve in the direction sought with a large enough effect; inconclusive = small, poorly fitted or top-dose-only effect, or another doubt; inactive = no such curve, though single readings can be large; an effect the other way counts as inactive or inconclusive;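 also: rhodamine fluorescence freed from ubiquitin-rhodamine substrate followed over time; potency is read from the fitted curve at half-maximal effect; nearly all actives have a fitted effect of over 35% in size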)
Outline: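 Deubiquitinase activity followed as kinetic rhodamine fluorescence release from 150 nM Ub-Rho. 1 nM USP1/UAF1 with compound, after 15 min room-temperature preincubation, in HEPES pH 7.8 buffer containing TCEP, EDTA, BSA and Tween-20.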
Tags tell the direction and shape of the fitted curve or compound fluorescence and quenching.

Chain of UniProt P05177 (P05177 whole entry, looked up): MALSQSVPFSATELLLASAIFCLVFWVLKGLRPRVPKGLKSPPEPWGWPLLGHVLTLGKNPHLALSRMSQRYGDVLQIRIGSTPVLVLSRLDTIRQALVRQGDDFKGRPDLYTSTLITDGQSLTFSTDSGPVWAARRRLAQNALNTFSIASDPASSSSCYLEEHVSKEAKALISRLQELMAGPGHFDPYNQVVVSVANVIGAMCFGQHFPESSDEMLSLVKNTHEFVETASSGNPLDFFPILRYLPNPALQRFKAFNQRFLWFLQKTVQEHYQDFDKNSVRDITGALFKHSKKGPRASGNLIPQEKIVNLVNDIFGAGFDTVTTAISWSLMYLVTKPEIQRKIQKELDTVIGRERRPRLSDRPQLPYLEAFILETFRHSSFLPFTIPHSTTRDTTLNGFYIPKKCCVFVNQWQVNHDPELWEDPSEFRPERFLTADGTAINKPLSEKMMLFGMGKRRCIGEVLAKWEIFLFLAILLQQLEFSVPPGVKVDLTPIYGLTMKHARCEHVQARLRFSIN
Chain of UniProt P10635 (P10635 whole entry, looked up): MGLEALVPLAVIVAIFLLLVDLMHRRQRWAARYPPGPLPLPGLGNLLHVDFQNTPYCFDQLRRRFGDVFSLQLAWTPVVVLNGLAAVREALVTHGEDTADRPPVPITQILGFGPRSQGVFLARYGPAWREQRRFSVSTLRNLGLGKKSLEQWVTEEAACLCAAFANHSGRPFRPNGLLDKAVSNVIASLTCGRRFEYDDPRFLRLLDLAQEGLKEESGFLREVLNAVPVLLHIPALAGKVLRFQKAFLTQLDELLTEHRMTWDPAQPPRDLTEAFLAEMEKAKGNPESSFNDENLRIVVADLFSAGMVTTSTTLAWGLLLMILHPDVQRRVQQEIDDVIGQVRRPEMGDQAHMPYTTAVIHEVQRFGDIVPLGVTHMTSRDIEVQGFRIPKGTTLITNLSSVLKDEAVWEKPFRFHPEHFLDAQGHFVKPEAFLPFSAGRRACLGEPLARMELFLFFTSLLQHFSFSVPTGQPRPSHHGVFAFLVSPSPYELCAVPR
Chain of UniProt Q07343 (Q07343 whole entry, looked up): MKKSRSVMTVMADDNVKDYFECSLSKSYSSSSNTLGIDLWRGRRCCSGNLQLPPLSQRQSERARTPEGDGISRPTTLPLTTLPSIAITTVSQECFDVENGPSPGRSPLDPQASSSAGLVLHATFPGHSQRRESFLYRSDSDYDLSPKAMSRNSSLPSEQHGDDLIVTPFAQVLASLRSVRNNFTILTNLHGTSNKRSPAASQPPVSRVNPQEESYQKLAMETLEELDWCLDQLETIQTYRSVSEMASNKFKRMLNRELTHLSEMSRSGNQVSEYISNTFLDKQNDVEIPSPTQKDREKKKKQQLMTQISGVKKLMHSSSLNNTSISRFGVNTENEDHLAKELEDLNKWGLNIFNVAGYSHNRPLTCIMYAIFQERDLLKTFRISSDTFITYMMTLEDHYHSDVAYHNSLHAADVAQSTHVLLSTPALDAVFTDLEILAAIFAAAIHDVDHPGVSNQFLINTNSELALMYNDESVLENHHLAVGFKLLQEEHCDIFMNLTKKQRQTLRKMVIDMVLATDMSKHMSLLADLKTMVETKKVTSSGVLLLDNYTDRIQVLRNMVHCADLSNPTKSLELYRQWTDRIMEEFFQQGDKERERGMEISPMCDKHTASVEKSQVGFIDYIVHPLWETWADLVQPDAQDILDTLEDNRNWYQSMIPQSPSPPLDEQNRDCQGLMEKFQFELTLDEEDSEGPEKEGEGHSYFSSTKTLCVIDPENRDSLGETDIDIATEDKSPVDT
Chain of UniProt O94782 (O94782 whole entry, looked up): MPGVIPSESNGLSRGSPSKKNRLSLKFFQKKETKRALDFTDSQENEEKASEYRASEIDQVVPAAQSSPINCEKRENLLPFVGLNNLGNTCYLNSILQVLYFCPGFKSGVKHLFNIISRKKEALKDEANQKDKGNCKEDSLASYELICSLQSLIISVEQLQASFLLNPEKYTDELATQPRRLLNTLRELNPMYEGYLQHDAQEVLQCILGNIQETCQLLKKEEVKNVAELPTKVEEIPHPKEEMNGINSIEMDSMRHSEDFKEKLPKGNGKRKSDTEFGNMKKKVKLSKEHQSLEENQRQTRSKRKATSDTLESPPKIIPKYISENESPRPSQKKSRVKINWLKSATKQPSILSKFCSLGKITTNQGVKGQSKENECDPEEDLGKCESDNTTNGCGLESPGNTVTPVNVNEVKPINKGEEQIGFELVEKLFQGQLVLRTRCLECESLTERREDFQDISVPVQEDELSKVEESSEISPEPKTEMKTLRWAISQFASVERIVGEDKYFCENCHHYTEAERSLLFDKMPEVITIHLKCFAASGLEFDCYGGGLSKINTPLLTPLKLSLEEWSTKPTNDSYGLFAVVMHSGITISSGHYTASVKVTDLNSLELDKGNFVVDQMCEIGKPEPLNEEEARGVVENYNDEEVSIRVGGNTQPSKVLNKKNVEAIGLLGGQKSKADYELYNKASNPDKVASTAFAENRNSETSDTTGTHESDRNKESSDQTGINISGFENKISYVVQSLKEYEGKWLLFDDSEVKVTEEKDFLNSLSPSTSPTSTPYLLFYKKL
Chain of UniProt P11712 (P11712 whole entry, looked up): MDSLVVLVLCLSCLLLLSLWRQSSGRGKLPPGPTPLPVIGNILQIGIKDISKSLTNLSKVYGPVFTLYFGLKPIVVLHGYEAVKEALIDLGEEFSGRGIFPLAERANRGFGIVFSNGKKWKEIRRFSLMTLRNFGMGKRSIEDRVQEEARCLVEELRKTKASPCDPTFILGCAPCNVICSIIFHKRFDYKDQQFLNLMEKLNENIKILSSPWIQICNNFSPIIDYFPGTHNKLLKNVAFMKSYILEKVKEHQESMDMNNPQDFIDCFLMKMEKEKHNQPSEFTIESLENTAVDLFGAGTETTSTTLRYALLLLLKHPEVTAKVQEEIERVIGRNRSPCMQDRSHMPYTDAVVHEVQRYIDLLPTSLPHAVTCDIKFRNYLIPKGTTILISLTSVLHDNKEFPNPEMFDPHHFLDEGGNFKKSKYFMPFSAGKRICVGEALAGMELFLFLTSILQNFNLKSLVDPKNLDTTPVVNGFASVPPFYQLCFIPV

CCNCc1cc2cc(C)ccc2[nH]c1=O
activity change, negative = inhibition [1]: inconclusive: 11% [activator]
activation [2]: inconclusive: -45.2%

CN(C)S(=O)(=O)c1nc(Cl)c2[nH]cnc2n1
activity change, negative = inhibition [1]: inactive: 1.09% [at 7.69 µM]
activation [2]: inconclusive: 33%

C[C@@H]1CCCN(C[C@@H](O)CN2CCCc3ccccc32)C1
activity change, negative = inhibition [1]: inconclusive: 61.2% [activator] [at 7.69 µM]
activation [2]: inconclusive: -20.3%

CCOC(=O)C1CCN(c2nc3ccccc3nc2C(C#N)C(=O)OC(C)C)CC1 (configuration not stated)
activity change, negative = inhibition [1]: inconclusive: -36.1% [inhibitor]
Potency [2]: inconclusive: 12.6 µM [fluorescent, single point]

O=C1c2ccccc2N[C@H](c2cc(Cl)cc(Cl)c2O)N1CCc1ccccn1
activity change, negative = inhibition [1]: inactive: -16.9% [at 7.69 µM]
Potency [2]: inconclusive: 2.51 µM [inhibitor, single point]

Cc1cc(-c2cc(C)c(O)c(C(C)(C)C)c2)cc(C(C)(C)C)c1O
Potency [3]: active: 0.631 µM
activity change, negative = inhibition [4]: inconclusive: -90.2% [inhibitor] [at 7.69 µM]
activity change, negative = inhibition [5]: inactive: -3.71% [at 11.4 µM]
Potency [6]: inconclusive: 5.01 µM [inhibitor, single point]
activation [2]: inactive: -9.94%

CCOc1ccc2c(ccc(/C=C\c3cc(C)c4cccnc4c3O)[n+]2C)c1
Potency [3]: inconclusive: 6.31 µM [decreasing]
activity change, negative = inhibition [4]: inconclusive: -81.7% [inhibitor] [at 7.69 µM]
activity, negative = inhibition [7]: inconclusive: -32.4% [inhibitor]
Potency [5]: inconclusive: 3.98 µM [inhibitor, single point]
Potency [8]: inconclusive: 3.16 µM [inhibitor, partial curve]
Potency [2]: inconclusive: 1 µM [inhibitor, partial curve]

O=C(O)CC[P+](c1ccccc1)(c1ccccc1)c1ccccc1
Potency [3]: inconclusive: 3.98 µM [decreasing]
activity change, negative = inhibition [4]: inconclusive: -49.2% [inhibitor] [at 7.69 µM]
activity, negative = inhibition [7]: inactive: 4.75%
Potency [9]: inconclusive: 0.794 µM [rising, full curve, poor fit]
Potency [8]: inconclusive: 3.98 µM [inhibitor, partial curve]
activation [2]: inconclusive: 23%

COc1cccc(-c2nc(N(C)Cc3ccco3)c3ccccc3n2)c1
Potency [3]: active: 0.316 µM
activity change, negative = inhibition [4]: inconclusive: -39.4% [inhibitor] [at 7.69 µM]
Potency [9]: inconclusive: 10 µM [activator, partial curve]
activation [2]: inconclusive: 33.3%
Potency [10]: inconclusive: 35.5 µM [inhibitor, partial curve, poor fit]

Reference: PubChem BioAssay (NCATS)
